Measurements from the BET-seq Pho4 binding data (Le et al. 2018).
This is one part of the list. The energies were worked out here from pooled read counts, against the library average; single values are noisy.

What follows are sequences tested against T1, Pho4 (S. cerevisiae) (UniProt P07270) (assay: relative binding free energy (BET-seq); higher = weaker binding). Details: reference: library average.
T1 sequence: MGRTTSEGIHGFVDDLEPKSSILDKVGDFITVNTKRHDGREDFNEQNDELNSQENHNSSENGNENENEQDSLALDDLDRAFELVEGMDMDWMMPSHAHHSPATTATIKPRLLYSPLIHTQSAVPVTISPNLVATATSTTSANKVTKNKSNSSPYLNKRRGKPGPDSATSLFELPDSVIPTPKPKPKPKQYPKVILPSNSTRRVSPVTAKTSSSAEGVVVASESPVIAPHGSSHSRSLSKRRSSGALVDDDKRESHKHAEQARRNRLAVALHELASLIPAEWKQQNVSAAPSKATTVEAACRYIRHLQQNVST

Sequence	relative binding free energy
TTAAGCACGTGTTGTT	-0.16 kcal/mol
AGATGCACGTGAATTA	0.31 kcal/mol
ATGGCCACGTGGTTTT	-0.2 kcal/mol
GTTTGCACGTGTTAAG	0.18 kcal/mol
TGGGTCACGTGAACCG	0.24 kcal/mol
TAGAGCACGTGGTGAG	-0.09 kcal/mol
GGTGGCACGTGAGTTT	0.29 kcal/mol
TTAATCACGTGTCTAT	0.13 kcal/mol
GCTGACACGTGGGGGA	-0.15 kcal/mol
CTGTACACGTGGGTGC	0.03 kcal/mol
TTCGGCACGTGTTTAG	-0.08 kcal/mol
TAATTCACGTGAATAA	0.45 kcal/mol
AGTTGCACGTGCGTGA	-0.07 kcal/mol
TCTTGCACGTGGGAGG	-0.07 kcal/mol
TCTTTCACGTGGTGTC	0.06 kcal/mol
TTGTGCACGTGAAAGC	0.16 kcal/mol
GTGGGCACGTGCAGTG	-0.1 kcal/mol
TGGAGCACGTGAGAAG	0.29 kcal/mol
CGTCGCACGTGAGGGG	0.15 kcal/mol
GCTGTCACGTGGATTT	0.18 kcal/mol
GTAGTCACGTGACTTT	0.26 kcal/mol
TTTTGCACGTGGAAGG	0.1 kcal/mol
ACATGCACGTGTATGT	-0.12 kcal/mol
GTTTTCACGTGGGAGA	0.17 kcal/mol
AGATGCACGTGAGTAG	0.18 kcal/mol
TGCAACACGTGGGAGT	0.04 kcal/mol

Sequence	relative binding free energy
GTATTCACGTGCGTTT	0.22 kcal/mol
GGGCTCACGTGTCGGA	0.29 kcal/mol
GGGTACACGTGCGTGA	0.06 kcal/mol
TTGTCCACGTGTTAGT	-0.04 kcal/mol
TTCGGCACGTGTTCTG	-0.11 kcal/mol
TGCCTCACGTGGTGTA	0.08 kcal/mol
AGAATCACGTGGTTGT	0.12 kcal/mol
GTCTGCACGTGCTGTA	0.13 kcal/mol
ATCTTCACGTGTAATT	0.25 kcal/mol
TGAATCACGTGTTAAA	0.33 kcal/mol
GTTGACACGTGGGAGT	-0.02 kcal/mol
TGGTCCACGTGTTCTG	0.06 kcal/mol
CTTTGCACGTGTAAGG	0.14 kcal/mol
AAGAGCACGTGATTTT	0.02 kcal/mol
TTTCTCACGTGTGAAT	0.4 kcal/mol
GGGGGCACGTGACGCA	-0.04 kcal/mol
CGGGTCACGTGAATTG	0.25 kcal/mol
TGTTTCACGTGATCGA	0.29 kcal/mol
CGCGTCACGTGGTTAG	0.1 kcal/mol
GGGAACACGTGCGTGA	0.14 kcal/mol
TATTGCACGTGTTGCA	-0.08 kcal/mol
TTGTCCACGTGGAGCT	0.15 kcal/mol
GGGGTCACGTGTGTCC	0.31 kcal/mol
CGGGCCACGTGAGGGT	0.13 kcal/mol
TACTGCACGTGATTGT	0.11 kcal/mol
TTATACACGTGGGTTG	-0.08 kcal/mol

Sequence	relative binding free energy
TGATTCACGTGGTTTA	0.18 kcal/mol
GTTCTCACGTGACGTG	0.3 kcal/mol
GGTCGCACGTGGAGTA	0.03 kcal/mol
AGACTCACGTGGGTTT	0.09 kcal/mol
CGTAGCACGTGTTGCG	-0.13 kcal/mol
ATACTCACGTGTTTAG	0.31 kcal/mol
ATATTCACGTGTGATT	0.34 kcal/mol
TTGGTCACGTGCTTTA	0.06 kcal/mol
GTCATCACGTGGGGTC	0.03 kcal/mol
CGGTACACGTGTTGAG	0.01 kcal/mol
TTTCTCACGTGAATGT	0.43 kcal/mol
GTTGTCACGTGCTTAT	0 kcal/mol
AACGGCACGTGGAGGT	0.01 kcal/mol
TGTCACACGTGTGGCA	0.25 kcal/mol
TTTTACACGTGGGCTT	0.02 kcal/mol
TGGGTCACGTGAGGGT	0.27 kcal/mol
GTACGCACGTGTGGGT	0.09 kcal/mol
TTTTGCACGTGATCGA	0.02 kcal/mol
GGGCCCACGTGTTATG	0.08 kcal/mol
AAGTGCACGTGAGGGG	0.23 kcal/mol
ATAAACACGTGTGGTT	0.07 kcal/mol
AGCATCACGTGGGTGT	-0.15 kcal/mol
TGTTCCACGTGATGGC	0.23 kcal/mol
GTGTACACGTGTTGGC	0.05 kcal/mol
ATAAGCACGTGTGGAT	-0.02 kcal/mol
GTTGGCACGTGGCTGC	-0.06 kcal/mol

Sequence	relative binding free energy
GTTATCACGTGTTTAA	0.19 kcal/mol
TTTCTCACGTGAGTAT	0.38 kcal/mol
TTGGTCACGTGTAATT	0.3 kcal/mol
AGAAACACGTGGGGCT	0.08 kcal/mol
TAGAGCACGTGTTGAG	0 kcal/mol
TGAGCCACGTGTTGGA	-0.07 kcal/mol
AGTTCCACGTGCGGGG	-0.1 kcal/mol
TGGAACACGTGGTATA	-0.13 kcal/mol
TGTAACACGTGTAGTC	0.03 kcal/mol
GTGGGCACGTGCAGAG	-0.16 kcal/mol
CTGTACACGTGTTTTT	0.15 kcal/mol
TTTGACACGTGTCTAT	0.06 kcal/mol
TGAAGCACGTGGGTCT	-0.31 kcal/mol
GGGATCACGTGGACGA	0.28 kcal/mol
GATTGCACGTGGGGAC	0.09 kcal/mol
GTTGACACGTGGTCTG	-0.06 kcal/mol
TTTTACACGTGTATTT	0.21 kcal/mol
AATGTCACGTGTAGTA	0.14 kcal/mol
TTAATCACGTGGTCGG	0.02 kcal/mol
GTTGACACGTGTTCGT	0 kcal/mol
GGGGACACGTGAAAGG	0.32 kcal/mol
GAGGGCACGTGACGGT	0.1 kcal/mol
ATGAGCACGTGTGGGT	-0.07 kcal/mol
TAGGGCACGTGGACGA	-0.14 kcal/mol
AACTACACGTGGGTAG	0.07 kcal/mol
TGGGTCACGTGCCTTG	0.01 kcal/mol

Sequence	relative binding free energy
GTGCGCACGTGGGTGA	-0.17 kcal/mol
TTTAGCACGTGAGAGT	0.17 kcal/mol
ATGGTCACGTGTGGCT	0.15 kcal/mol
TCGTGCACGTGATAGG	0.1 kcal/mol
TGGGCCACGTGAAGTA	0.26 kcal/mol
TCAAGCACGTGGGGAG	-0.23 kcal/mol
TCGTACACGTGGGTTT	-0.04 kcal/mol
TTATTCACGTGCTTAA	0.15 kcal/mol
TCTGTCACGTGGGTTC	-0.01 kcal/mol
TCGGTCACGTGGGAGT	0.03 kcal/mol
AAGTGCACGTGTTTCG	0.06 kcal/mol
GTGGTCACGTGTATGG	0.24 kcal/mol
GAGAACACGTGGTGTG	-0.08 kcal/mol
GGTTTCACGTGGCCCT	0.35 kcal/mol
TATATCACGTGATGGG	0.26 kcal/mol
CGGTGCACGTGAAGGC	0.14 kcal/mol
TGAATCACGTGGGCTA	0.06 kcal/mol
TTTTGCACGTGATACA	0.08 kcal/mol
CGAGGCACGTGGAGGC	-0.06 kcal/mol
TAGTACACGTGGCTGG	0.07 kcal/mol
TCATTCACGTGTTTTG	0.24 kcal/mol
CAGGGCACGTGGATTG	0.03 kcal/mol
TTGTTCACGTGACTCG	0.38 kcal/mol
TGTAACACGTGGGGGC	-0.12 kcal/mol
AGTCACACGTGGGTCG	0.11 kcal/mol
AGTTTCACGTGGTCGG	0.23 kcal/mol

Sequence	relative binding free energy
GATTACACGTGTTGAG	0.18 kcal/mol
CGGGGCACGTGTGGTA	0.09 kcal/mol
GTCTTCACGTGGCGTT	0.23 kcal/mol
GATGTCACGTGCGATT	0.16 kcal/mol
GAGGACACGTGGGTCA	0.09 kcal/mol
TTGATCACGTGAGACG	0.28 kcal/mol
AATGACACGTGGAGTG	0.06 kcal/mol
GATTACACGTGGATGG	0.18 kcal/mol
AACGGCACGTGGGTTG	-0.16 kcal/mol
GGGGCCACGTGAATGT	0.29 kcal/mol
TAGTACACGTGTGTGC	-0.03 kcal/mol
AAGAGCACGTGGGGCG	-0.23 kcal/mol
TTTCCCACGTGGGAGT	-0.1 kcal/mol
GTTTGCACGTGGTTCC	0.22 kcal/mol
AGTTTCACGTGGGATT	0.14 kcal/mol
GTCTGCACGTGTGGTT	0.09 kcal/mol
GAGCTCACGTGATGGT	0.33 kcal/mol
GGTATCACGTGTATGA	0.23 kcal/mol
TTGAACACGTGTAGGG	0.1 kcal/mol
GGTTACACGTGGGGCC	0.06 kcal/mol
TTTATCACGTGTGAGT	0.32 kcal/mol
TTTAGCACGTGCGGTT	0.01 kcal/mol
TTGAGCACGTGTACAT	-0.01 kcal/mol
GGATTCACGTGTGTGG	0.27 kcal/mol
CGTTTCACGTGTATAG	0.25 kcal/mol
ATGATCACGTGGGGTA	0.05 kcal/mol

Sequence	relative binding free energy
TTAGGCACGTGAAGAG	0 kcal/mol
ATATTCACGTGTTTCG	0.19 kcal/mol
TGGGGCACGTGGCTCA	-0.21 kcal/mol
TGAAACACGTGGGTAT	-0.2 kcal/mol
AATCACACGTGGTTTT	0.17 kcal/mol
TGTAACACGTGAGAAG	0.14 kcal/mol
TATCGCACGTGTGCGG	-0.12 kcal/mol
GCATTCACGTGGGGTT	0.16 kcal/mol
GTCGACACGTGATGGT	0.35 kcal/mol
AGTATCACGTGTGTGT	0.23 kcal/mol
GGATGCACGTGTCATG	0.12 kcal/mol
CTGGGCACGTGGACGT	-0.07 kcal/mol
TTATCCACGTGGTATG	-0.06 kcal/mol
TTATGCACGTGTTATA	-0.19 kcal/mol
AAGCGCACGTGGGCGG	-0.33 kcal/mol
TGTTCCACGTGGTATA	-0.03 kcal/mol
ATTTTCACGTGTTTTC	0.31 kcal/mol
GGAAGCACGTGAAGTG	0.14 kcal/mol
GTAGTCACGTGGGTCC	-0.02 kcal/mol
TCAGCCACGTGGGTGG	-0.23 kcal/mol
GGTATCACGTGCGATT	0.23 kcal/mol
TGCCTCACGTGATGGG	0.25 kcal/mol
GCTGTCACGTGCGGTG	0.06 kcal/mol
TGTATCACGTGCTGCG	0.12 kcal/mol
ATGTACACGTGCAGGG	0 kcal/mol
GGTCCCACGTGTTTGT	0.02 kcal/mol

Sequence	relative binding free energy
TTGCTCACGTGGATAT	0.1 kcal/mol
GTATTCACGTGTGTAT	0.34 kcal/mol
GGGTGCACGTGAAGTC	0.4 kcal/mol
GGGCGCACGTGTTATT	-0.05 kcal/mol
ATAAGCACGTGGGGAG	-0.19 kcal/mol
GATATCACGTGTGGCG	0.17 kcal/mol
TAATTCACGTGAGTGT	0.43 kcal/mol
AGGCGCACGTGTTGAA	0.02 kcal/mol
CGGTTCACGTGAGGCG	0.44 kcal/mol
GAGAACACGTGGTATG	0.16 kcal/mol
TGGGCCACGTGGTGGT	-0.11 kcal/mol
GGAGACACGTGGGTCT	-0.01 kcal/mol
AATAGCACGTGTAGGA	0.03 kcal/mol
CTATGCACGTGCGGTG	-0.17 kcal/mol
ATGGTCACGTGATAAT	0.28 kcal/mol
AGTCTCACGTGTGTAG	0.28 kcal/mol
TGGATCACGTGGCGGC	0.01 kcal/mol
AGCGGCACGTGGTGAT	-0.18 kcal/mol
ATCTTCACGTGGGCTG	0.07 kcal/mol
GCGTCCACGTGGTGGG	-0.08 kcal/mol
TGGGGCACGTGGCCTA	-0.31 kcal/mol
GGAAACACGTGGTTGG	-0.06 kcal/mol
TTTTACACGTGCTTAG	-0.02 kcal/mol
CCTGGCACGTGTTTGT	-0.24 kcal/mol
CGGGGCACGTGTATTT	-0.03 kcal/mol
GGCGGCACGTGTCGTT	0.01 kcal/mol

Sequence	relative binding free energy
GTGGCCACGTGTTTAG	0.07 kcal/mol
TTGCACACGTGGGGCG	-0.02 kcal/mol
GTCTCCACGTGTGTGT	0.04 kcal/mol
GATATCACGTGGCGTA	0.13 kcal/mol
GAGGTCACGTGGTATG	0.07 kcal/mol
TCTGGCACGTGAGTAA	0.09 kcal/mol
GGCGTCACGTGGTAGA	0.17 kcal/mol
TTGCTCACGTGATGCT	0.41 kcal/mol
TTGGTCACGTGTTATG	0.16 kcal/mol
TATGTCACGTGCGCGG	-0.11 kcal/mol
AAATTCACGTGCTGTT	0.26 kcal/mol
GTATTCACGTGTTCGA	0.28 kcal/mol
CGGGTCACGTGAGCGG	0.28 kcal/mol
TCTGGCACGTGTAATA	0.14 kcal/mol
TATAACACGTGTGAGG	0.06 kcal/mol
TGGCCCACGTGTTGGT	-0.04 kcal/mol
GAGTTCACGTGTAGCG	0.35 kcal/mol
TGTATCACGTGATGCG	0.26 kcal/mol
TGCTACACGTGTTCGG	0.12 kcal/mol
TGCTGCACGTGAGGGC	0.04 kcal/mol
GTGTTCACGTGCAGCT	0.31 kcal/mol
CGGAGCACGTGGAGCG	-0.07 kcal/mol
